Data as given in the supplement of paper PMC8728848.
The other results are listed elsewhere or left out.

Tests used:
Assay in all cases: glycan array binding signal (z-score within array); higher = stronger binding
Conditions in all cases: glycan notation: IUPAC condensed, linker removed
[1] = target: GlcNAc(b1-2)Gal(b1-3)GalNAc
Method in brief: (§1)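 Arrays were curated from the Consortium for Functional Glycomics database, 3228 in total, and kept only where the protein sequence was available. Binding is expressed as a within-array Z-score. This score was averaged across arrays of the same protein sequence at different concentrations or buffers and across linkers, and negative values can be read as non-binding.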

[2] = target: GlcNAc(b1-2)Man(a1-3)[GlcNAc(b1-2)Man(a1-6)]Man(b1-4)GlcNAc(b1-4)GlcNAc
Method in brief: as §1

[3] = target: GlcNAc(b1-2)Man(a1-3)[GlcNAc(b1-2)Man(a1-6)]Man(b1-4)GlcNAc(b1-4)[Fuc(a1-6)]GlcNAc
Method in brief: as §1

[4] = target: GlcNAc(b1-2)Man(a1-3)[GlcNAc(b1-4)][GlcNAc(b1-2)Man(a1-6)]Man(b1-4)GlcNAc(b1-4)GlcNAc
Method in brief: as §1

[5] = target: GlcNAc(b1-2)Man(a1-3)[GlcNAc(b1-4)][GlcNAc(b1-2)Man(a1-6)]Man(b1-4)GlcNAc(b1-4)[Fuc(a1-6)]GlcNAc
Method in brief: as §1

[6] = target: GlcNAc(b1-2)[GlcNAc(b1-4)]Man(a1-3)[GlcNAc(b1-2)Man(a1-6)]Man(b1-4)GlcNAc(b1-4)GlcNAc
Method in brief: as §1

[7] = target: GlcNAc(b1-2)[GlcNAc(b1-4)]Man(a1-3)[GlcNAc(b1-4)][GlcNAc(b1-2)Man(a1-6)]Man(b1-4)GlcNAc(b1-4)GlcNAc
Method in brief: as §1

[8] = target: GlcNAc(b1-2)[GlcNAc(b1-4)]Man(a1-3)[GlcNAc(b1-4)][GlcNAc(b1-2)[GlcNAc(b1-6)]Man(a1-6)]Man(b1-4)GlcNAc(b1-4)GlcNAc
Method in brief: as §1

[9] = target: GlcNAc(b1-2)[GlcNAc(b1-4)]Man(a1-3)[GlcNAc(b1-4)][GlcNAc(b1-2)[GlcNAc(b1-6)]Man(a1-6)]Man(b1-4)GlcNAc(b1-4)[Fuc(a1-6)]GlcNAc
Method in brief: as §1

[10] = target: GlcNAc(b1-2)[GlcNAc(b1-6)]Man(a1-6)[GlcNAc(b1-2)Man(a1-3)]Man(b1-4)GlcNAc(b1-4)GlcNAc
Method in brief: as §1

[11] = target: GlcNAc(b1-2)[GlcNAc(b1-6)]Man(a1-6)[GlcNAc(b1-2)Man(a1-3)]Man(b1-4)GlcNAc(b1-4)[Fuc(a1-6)]GlcNAc
Method in brief: as §1

[12] = target: GlcNAc(b1-2)[GlcNAc(b1-6)]Man(a1-6)[GlcNAc(b1-4)][GlcNAc(b1-2)Man(a1-3)]Man(b1-4)GlcNAc(b1-4)GlcNAc
Method in brief: as §1

GlcNAc(b1-3)Fuc = target: GlcNAc(b1-3)Fuc
Method in brief: as §1

GlcNAc(b1-3)Gal = target: GlcNAc(b1-3)Gal
Method in brief: as §1

[13] = target: GlcNAc(b1-3)Gal(b1-3)GalNAc
Method in brief: as §1

GlcNAc(b1-3)Gal(b1-4)Glc = target: GlcNAc(b1-3)Gal(b1-4)Glc
Method in brief: as §1

[14] = target: GlcNAc(b1-3)Gal(b1-4)GlcNAc
Method in brief: as §1

[15] = target: GlcNAc(b1-3)Gal(b1-4)GlcNAc(b1-2)Man(a1-3)[GlcNAc(b1-3)Gal(b1-4)GlcNAc(b1-2)Man(a1-6)]Man(b1-4)GlcNAc(b1-4)GlcNAc
Method in brief: as §1

[16] = target: GlcNAc(b1-3)Gal(b1-4)GlcNAc(b1-2)Man(a1-3)[GlcNAc(b1-3)Gal(b1-4)GlcNAc(b1-2)Man(a1-6)]Man(b1-4)GlcNAc(b1-4)[Fuc(a1-6)]GlcNAc
Method in brief: as §1

[17] = target: GlcNAc(b1-3)Gal(b1-4)GlcNAc(b1-2)[GlcNAc(b1-3)Gal(b1-4)GlcNAc(b1-6)]Man(a1-6)[GlcNAc(b1-3)Gal(b1-4)GlcNAc(b1-2)Man(a1-3)]Man(b1-4)GlcNAc(b1-4)GlcNAc
Method in brief: as §1

[18] = target: GlcNAc(b1-3)Gal(b1-4)GlcNAc(b1-3)Gal(b1-4)GlcNAc
Method in brief: as §1

[19] = target: GlcNAc(b1-3)Gal(b1-4)GlcNAc(b1-3)Gal(b1-4)GlcNAc(b1-2)Man(a1-3)[GlcNAc(b1-3)Gal(b1-4)GlcNAc(b1-3)Gal(b1-4)GlcNAc(b1-2)Man(a1-6)]Man(b1-4)GlcNAc(b1-4)GlcNAc
Method in brief: as §1

[20] = target: GlcNAc(b1-3)Gal(b1-4)GlcNAc(b1-3)Gal(b1-4)GlcNAc(b1-2)Man(a1-3)[GlcNAc(b1-3)Gal(b1-4)GlcNAc(b1-3)Gal(b1-4)GlcNAc(b1-2)Man(a1-6)]Man(b1-4)GlcNAc(b1-4)[Fuc(a1-6)]GlcNAc
Method in brief: as §1

[21] = target: GlcNAc(b1-3)Gal(b1-4)GlcNAc(b1-3)Gal(b1-4)GlcNAc(b1-2)[GlcNAc(b1-3)Gal(b1-4)GlcNAc(b1-3)Gal(b1-4)GlcNAc(b1-6)]Man(a1-6)[GlcNAc(b1-3)Gal(b1-4)GlcNAc(b1-3)Gal(b1-4)GlcNAc(b1-2)Man(a1-3)]Man(b1-4)GlcNAc(b1-4)[Fuc(a1-6)]GlcNAc
Method in brief: as §1

[22] = target: GlcNAc(b1-3)Gal(b1-4)GlcNAc(b1-3)Gal(b1-4)GlcNAc(b1-3)Gal(b1-4)GlcNAc(b1-2)Man(a1-3)[GlcNAc(b1-3)Gal(b1-4)GlcNAc(b1-3)Gal(b1-4)GlcNAc(b1-3)Gal(b1-4)GlcNAc(b1-2)Man(a1-6)]Man(b1-4)GlcNAc(b1-4)GlcNAc
Method in brief: as §1

[23] = target: GlcNAc(b1-3)Gal(b1-4)GlcNAc(b1-3)Gal(b1-4)GlcNAc(b1-3)Gal(b1-4)GlcNAc(b1-2)Man(a1-3)[GlcNAc(b1-3)Gal(b1-4)GlcNAc(b1-3)Gal(b1-4)GlcNAc(b1-3)Gal(b1-4)GlcNAc(b1-2)Man(a1-6)]Man(b1-4)GlcNAc(b1-4)[Fuc(a1-6)]GlcNAc
Method in brief: as §1

[24] = target: GlcNAc(b1-3)Gal(b1-4)GlcNAc(b1-3)Gal(b1-4)GlcNAc(b1-3)Gal(b1-4)GlcNAc(b1-2)[GlcNAc(b1-3)Gal(b1-4)GlcNAc(b1-3)Gal(b1-4)GlcNAc(b1-3)Gal(b1-4)GlcNAc(b1-6)]Man(a1-6)[GlcNAc(b1-3)Gal(b1-4)GlcNAc(b1-3)Gal(b1-4)GlcNAc(b1-3)Gal(b1-4)GlcNAc(b1-2)Man(a1-3)]Man(b1-4)GlcNAc(b1-4)[Fuc(a1-6)]GlcNAc
Method in brief: as §1

[25] = target: GlcNAc(b1-3)Gal(b1-4)GlcNAc(b1-3)Gal(b1-4)GlcNAc(b1-3)Gal(b1-4)GlcNAc(b1-3)Gal(b1-4)GlcNAc(b1-2)Man(a1-3)[GlcNAc(b1-3)Gal(b1-4)GlcNAc(b1-3)Gal(b1-4)GlcNAc(b1-3)Gal(b1-4)GlcNAc(b1-3)Gal(b1-4)GlcNAc(b1-2)Man(a1-6)]Man(b1-4)GlcNAc(b1-4)GlcNAc
Method in brief: as §1

[26] = target: GlcNAc(b1-3)Gal(b1-4)GlcNAc(b1-3)Gal(b1-4)GlcNAc(b1-3)Gal(b1-4)GlcNAc(b1-3)Gal(b1-4)GlcNAc(b1-2)Man(a1-3)[GlcNAc(b1-3)Gal(b1-4)GlcNAc(b1-3)Gal(b1-4)GlcNAc(b1-3)Gal(b1-4)GlcNAc(b1-3)Gal(b1-4)GlcNAc(b1-2)Man(a1-6)]Man(b1-4)GlcNAc(b1-4)[Fuc(a1-6)]GlcNAc
Method in brief: as §1

[27] = target: GlcNAc(b1-3)Gal(b1-4)GlcNAc(b1-3)Gal(b1-4)GlcNAc(b1-3)Gal(b1-4)GlcNAc(b1-3)Gal(b1-4)GlcNAc(b1-2)[GlcNAc(b1-3)Gal(b1-4)GlcNAc(b1-3)Gal(b1-4)GlcNAc(b1-3)Gal(b1-4)GlcNAc(b1-3)Gal(b1-4)GlcNAc(b1-6)]Man(a1-6)[GlcNAc(b1-3)Gal(b1-4)GlcNAc(b1-3)Gal(b1-4)GlcNAc(b1-3)Gal(b1-4)GlcNAc(b1-3)Gal(b1-4)GlcNAc(b1-2)Man(a1-3)]Man(b1-4)GlcNAc(b1-4)[Fuc(a1-6)]GlcNAc
Method in brief: as §1

[28] = target: GlcNAc(b1-3)Gal(b1-4)GlcNAc(b1-3)Gal(b1-4)GlcNAc(b1-3)GalNAc
Method in brief: as §1

[29] = target: GlcNAc(b1-3)Gal(b1-4)GlcNAc(b1-3)GalNAc
Method in brief: as §1

[30] = target: GlcNAc(b1-3)Gal(b1-4)GlcNAc(b1-3)[GlcNAc(b1-3)Gal(b1-4)GlcNAc(b1-3)]GalNAc
Method in brief: as §1

[31] = target: GlcNAc(b1-3)Gal(b1-4)GlcNAc(b1-6)[Gal(b1-3)]GalNAc
Method in brief: as §1

[32] = target: GlcNAc(b1-3)Gal(b1-4)GlcNAc(b1-6)[GlcNAc(b1-3)Gal(b1-3)]GalNAc
Method in brief: as §1

[33] = target: GlcNAc(b1-3)Gal(b1-4)GlcNAc(b1-6)[GlcNAc(b1-3)]Gal(b1-4)GlcNAc
Method in brief: as §1

GlcNAc(b1-3)GalNAc = target: GlcNAc(b1-3)GalNAc
Method in brief: as §1

B1: Cohesin-marm-DC-ASGPR (protein)
chain: LDITSHHHHHHDDLDAVRIKVDTVNAKPGDTVRIPVRFSGIPSKGIANCDFVYSYDPNVLEIIEIEPGDIIVDPNPDKSFDTAVYPDRKIIVFLFAEDSGTGAYAITKDGVFATIVAKVKEGAPNGLSVIKFVEVGGFANNDLVEQKTQFFDGGVNVGDTTEPATPTTPVTTPTTTDDLDAASSKFQRDLVTLRTDFSNFTSNTLAEIQALTSQGSSLQETIASLKAEVEGHKQELQAGASELQEHNKQKAHLGRCPHTCVCPSSFVCVPVHSEILLRVQQLVQDLNKLSCQVAILKNNATTERTCCPINWVEHQGSCYWFSRSGKTWPEAERYCQLENTHLVVINSREEQNFVQAHLGSAYTWMGLSDPEGVWKWVDGTDYSSGFQNWKPGQPDDWQGHGLGGGEDCAHFHPDGRWNDDVCQRSYHWVCEAGLTQASQDSHAS
For B1, the “glycan array binding signal (z-score)” value [1] was -0.285, the “glycan array binding signal (z-score)” value [2] was -0.288 and the “glycan array binding signal (z-score)” value [3] was -0.26. The “glycan array binding signal (z-score)” value [4] was -0.303, the “glycan array binding signal (z-score)” value [5] was -0.311 and the “glycan array binding signal (z-score)” value [6] was -0.301. The “glycan array binding signal (z-score)” value [7] was -0.278, the “glycan array binding signal (z-score)” value [8] was -0.302 and the “glycan array binding signal (z-score)” value [9] was -0.313. For the same binder, the “glycan array binding signal (z-score)” value [10] was -0.297, the “glycan array binding signal (z-score)” value [11] was -0.298 and the “glycan array binding signal (z-score)” value [12] was -0.311. The “glycan array binding signal (z-score)” value (GlcNAc(b1-3)Fuc) was -0.311, the “glycan array binding signal (z-score)” value (GlcNAc(b1-3)Gal) was -0.306 and the “glycan array binding signal (z-score)” value [13] was -0.296. The “glycan array binding signal (z-score)” value (GlcNAc(b1-3)Gal(b1-4)Glc) was -0.31, the “glycan array binding signal (z-score)” value [14] was -0.297 and the “glycan array binding signal (z-score)” value [15] was -0.311. The “glycan array binding signal (z-score)” value [16] was -0.259, the “glycan array binding signal (z-score)” value [17] was -0.292 and the “glycan array binding signal (z-score)” value [18] was -0.304. For the same binder, the “glycan array binding signal (z-score)” value [19] was -0.228, the “glycan array binding signal (z-score)” value [20] was -0.288 and the “glycan array binding signal (z-score)” value [21] was -0.306. For the same binder, the “glycan array binding signal (z-score)” value [22] was -0.279, the “glycan array binding signal (z-score)” value [23] was -0.266 and the “glycan array binding signal (z-score)” value [24] was -0.307. The “glycan array binding signal (z-score)” value [25] was -0.105, the “glycan array binding signal (z-score)” value [26] was 0.086 and the “glycan array binding signal (z-score)” value [27] was -0.306. For the same binder, the “glycan array binding signal (z-score)” value [28] was -0.31, the “glycan array binding signal (z-score)” value [29] was -0.306 and the “glycan array binding signal (z-score)” value [30] was -0.306. For the same binder, the “glycan array binding signal (z-score)” value [31] was -0.291, the “glycan array binding signal (z-score)” value [32] was -0.306 and the “glycan array binding signal (z-score)” value [33] was -0.309. The “glycan array binding signal (z-score)” value (GlcNAc(b1-3)GalNAc) was -0.287.
